# Laboratory results as given in article PMC4336329 (PLoS ONE, 2015).
# About 2,200 (0.71%) of roughly 310,000 compounds showed an effect of 50% or more. The effect is printed as a negative number. Some of the results follow.
# Target: human ether-à-go-go-related gene (hERG) potassium channel (human, UniProt Q12809)
# Assay: primary screen, population patch clamp on CHO cells stably expressing hERG
# human ether-à-go-go-related gene (hERG) potassium channel, sequence (Q12809 whole entry, looked up): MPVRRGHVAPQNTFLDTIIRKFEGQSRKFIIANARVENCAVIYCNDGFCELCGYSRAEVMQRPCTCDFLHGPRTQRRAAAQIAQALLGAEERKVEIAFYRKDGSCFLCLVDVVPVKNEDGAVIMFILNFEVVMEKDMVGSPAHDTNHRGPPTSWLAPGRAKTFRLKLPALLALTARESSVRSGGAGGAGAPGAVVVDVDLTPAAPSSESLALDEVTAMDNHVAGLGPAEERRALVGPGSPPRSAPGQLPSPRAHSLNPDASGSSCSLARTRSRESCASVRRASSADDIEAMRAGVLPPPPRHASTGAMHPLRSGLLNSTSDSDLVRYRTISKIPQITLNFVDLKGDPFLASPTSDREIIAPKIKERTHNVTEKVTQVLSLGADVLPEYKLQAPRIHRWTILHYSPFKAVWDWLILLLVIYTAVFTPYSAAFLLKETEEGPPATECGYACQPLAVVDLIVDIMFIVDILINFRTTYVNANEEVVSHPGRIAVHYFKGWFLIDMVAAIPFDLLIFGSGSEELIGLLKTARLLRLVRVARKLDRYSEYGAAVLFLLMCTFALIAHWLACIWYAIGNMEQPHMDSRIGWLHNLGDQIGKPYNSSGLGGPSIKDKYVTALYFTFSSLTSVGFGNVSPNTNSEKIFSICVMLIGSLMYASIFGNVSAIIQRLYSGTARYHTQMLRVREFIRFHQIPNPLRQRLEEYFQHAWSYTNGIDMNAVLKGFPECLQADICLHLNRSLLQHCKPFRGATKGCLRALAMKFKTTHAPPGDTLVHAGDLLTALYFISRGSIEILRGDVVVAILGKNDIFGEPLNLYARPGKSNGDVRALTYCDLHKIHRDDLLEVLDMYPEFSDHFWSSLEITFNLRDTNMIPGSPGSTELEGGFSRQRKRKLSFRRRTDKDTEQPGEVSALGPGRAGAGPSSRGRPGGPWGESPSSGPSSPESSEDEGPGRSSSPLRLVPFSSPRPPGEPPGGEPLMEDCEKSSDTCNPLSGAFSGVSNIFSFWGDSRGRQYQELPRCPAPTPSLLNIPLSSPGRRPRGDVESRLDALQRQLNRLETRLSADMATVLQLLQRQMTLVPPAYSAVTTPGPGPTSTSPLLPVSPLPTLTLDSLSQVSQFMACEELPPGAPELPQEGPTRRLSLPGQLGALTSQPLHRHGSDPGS
row,SMILES,"hERG current change (%, negative = inhibition) at 1uM"
1,N#Cc1ccc(CSc2nnc(-c3cccnc3)o2)cc1,-3.75%
2,O=C(Cc1cccs1)N1CCCC(c2nc3c(nnn3Cc3ccccc3Cl)c(=O)[nH]2)C1 (stereo not drawn),-7.61%
3,Cc1ccc(C(=O)NNC(=O)c2cc(C)nc3ccccc23)cc1,5.58%
4,CC(=O)C1=NOC2C(=O)N(c3ccccc3)C(=O)C12 (stereo not drawn),9.42%
5,Cc1ccc(-c2nc3ccc(Cl)cc3n2OC(C)C(=O)O)cc1 (stereo not drawn),11%
6,O=C(CNC(=O)C1(c2ccccc2)CC1)Nc1ccc(F)c(F)c1,9.39%
7,C(/C=C/c1ccccn1)=C\c1ccccc1,7.67%
8,CCCCCCn1c(O)c(/C=C2\C=NN=C2c2ccccc2)sc1=S,12.5%
9,COc1cc(NC(=O)CN2C(=O)NC(C)(CCC(C)C)C2=O)cc(OC)c1 (stereo not drawn),1.73%
10,O=C(NCc1ccc(F)cc1)C(=O)NCC1CCCN1S(=O)(=O)c1ccccc1 (stereo not drawn),-3.58%
11,CC(C)C(=O)N(Cc1ccc(F)cc1)Cc1nc2ccccc2c(=O)[nH]1,9.78%
12,COc1ccc2c(c1)c(=O)c(C(=O)O)c(-c1ccc3c(c1)OCO3)n2C,-3.85%
13,Br.CCCCC(CCC(=O)O)(C(=O)OCC)c1csc(Nc2ccc(OCC)cc2)n1 (stereo not drawn),8.27%
14,CN1C(=O)CC(N2CCN(CCN=CC3=C(O)CC(C)(C)CC3=O)CC2)C1=O (stereo not drawn),17.2%
15,CCOc1ccc(NC(=O)COC(=O)c2ccc3c(c2)C(=O)N(CCc2ccccc2)C3=O)cc1,12.4%
16,COc1ccc(C(=O)Nc2ccccc2C(=O)NC(Cc2ccc(O)cc2)C(=O)NNC(=O)c2ccccc2)cc1 (stereo not drawn),7.58%
17,C#CCN(C)CCCOc1ccc(Cl)cc1Cl.Cl,8.12%
18,CCC(=NC1CC1)c1c(O)n(-c2ccc(OC)cc2)c(=O)[nH]c1=O,16.9%
19,CC1CCN(C(=O)CSc2nnc(-c3ccncc3)n2C)CC1,13.2%

row,SMILES,"hERG current change (%, negative = inhibition) at 1uM"
1,O=[N+]([O-])c1ccc(Oc2ccc(/C=N/O)cc2)nc1,9.68%
2,CCOc1ccc(CCNC(=O)COC(=O)c2c(OC)cccc2OC)cc1OCC,2.73%
3,Cc1cc(C)cc(Oc2nc(C(F)(F)F)nc3ccccc23)c1,12.4%
4,CCOc1ccc(CC(=O)N2CCN(c3ccc(N4CCOCC4)nn3)CC2)cc1OCC,8.71%
5,O=C(CSc1nnnn1-c1cccnc1)Nc1ccc(OCc2ccccc2)cc1,-6.39%
6,Cc1cccc(C)c1-n1c(SCC(=O)NCc2ccco2)nc2ccccc2c1=O,-9.19%
7,COc1ccc(C2C(C(C)=O)=C(C)Nc3ncnn32)cc1 (stereo not drawn),14.5%
8,CN(C)C(=O)c1cn(-c2ccc(Cl)cc2)c(=O)c2ccccc12,-1.44%
9,O=C(Nc1ccc(F)cc1F)c1csc(-c2cccs2)n1,21.1%
10,CC(=O)c1ccc(NC(=S)NCc2cccnc2)cc1,5.13%
11,O=C(O)c1cc(=O)c2ccccc2[nH]1,12.6%
12,COc1ccc(N2C(=O)CCC(C(=O)Nc3ccccn3)C2c2ccc(OC)c(OC)c2)cc1 (stereo not drawn),17.2%
13,COC(=O)C1=C(c2ccc(F)cc2OCc2ccccc2)C[C@@H]2CC[C@H]1N2C(=O)N1CCC(C)CC1,11%
14,CC(=O)n1c(Cl)c(NC(=O)CCl)c2ccccc21,1.44%
15,COc1ccccc1C1C2=C(CCCC2=O)N(CC(=O)O)C2=C1C(=O)CCC2,16.6%
16,CCOC(=O)c1c(C)oc2ccc(NS(=O)(=O)c3cccs3)cc12,9.68%
17,Cc1cc2c(ncn2Cc2ccccc2)c(N)c1C,11.6%
18,Cc1cc(NC(=O)C2=C(O)c3ccccc3S(=O)(=O)N2C)no1,12.7%
19,COc1ccc(/C=N/OC/C(O)=C(\C#N)c2nc3ccccc3[nH]2)cc1,-13%

row,SMILES,"hERG current change (%, negative = inhibition) at 1uM"
1,COc1ccccc1OCCSc1nnc(C)n1-c1ccccc1,2.16%
2,Cc1cc(NC(=O)CSc2nc3ccccc3s2)no1,15.2%
3,COc1ccc(NC(=S)N2CCN(Cc3cccc(F)c3)CC2)c(OC)c1,4.54%
4,CCNC(=O)COC(=O)Cc1ccc(Cl)cc1Cl,8.35%
5,CN1CCN(c2ccc(S(=O)(=O)N3CCOCC3)cc2NC(=O)Cc2ccccc2F)CC1,0.865%
6,COc1ccccc1CC(=O)NC1CC1,11.3%
7,CCNS(=O)(=O)c1ccc(NC(=O)Cn2cc([N+](=O)[O-])cn2)cc1,19%
8,COc1ccc(CN2C(=O)CS/C2=N/N=C/c2cccs2)cc1,11.1%
9,S=c1[nH]nc(-c2ccco2)n1/N=C/C=C/c1ccco1,16.3%
10,C/C(=N\NC(=O)c1c(Br)c(C)nn1C)c1cccc(NC(=O)c2ccccc2C)c1,-0.655%
11,CN(C)C1=NC(=O)/C(=C\c2ccccc2)S1,11.7%
12,Cc1nn(C)cc1/C=N/n1nnnc1N,-3.66%
13,COc1ccc(Br)cc1CNC(=O)C1CCCN(S(C)(=O)=O)C1 (stereo not drawn),-7.67%
14,O=S(=O)(c1cccc(-c2cn3ccccc3n2)c1)N1CCCC1,-0.2%
15,O=C(C[n+]1ccccc1)c1ccc(Cl)cc1.[I-],13.5%
16,COC(=O)c1ccc(CSc2nc3ccccc3c(=O)n2C)o1,9.6%
17,N#Cc1nc(-c2cccc3ccccc23)oc1NCCN1CCOCC1,0.449%
18,Cc1cc(OCc2cc(C(=O)N3CCN(CC4CC4)CC3)no2)cc(C)c1Cl,17.3%
19,O=C(COC(=O)CNC(=O)c1ccc(Cl)c([N+](=O)[O-])c1)NC(=O)CN1CCCC1=O,5.44%
